Test results: the supplement of paper PMC4967469

What was measured:
AKT inhibitor VIII = compound: O=c1[nH]c2ccccc2n1C1CCN(Cc2ccc(-c3[nH]c4cc5ncnc5cc4nc3-c3ccccc3)cc2)CC1 [AKT inhibitor VIII]; experiment: Viability of human cancer cell lines after 72 h of drug (GDSC screen); details: top dose inferred
Procedure: (§1)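 Human cancer cell lines in 384-well plates, medium with 10% serum, drug for 72 h over a 256-fold dose range (nine 2-fold or five 4-fold steps up to the top dose). Adherent lines were fixed and stained with the nucleic acid dye Syto60, suspension lines read with resazurin; signal relative to control wells, capped at 0 and 100%. One two-parameter sigmoid per drug and line, fitted in a mixed model over all curves with the slope shared within a line.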

AICAR = compound: NC(=O)c1ncn([C@@H]2O[C@H](CO)[C@@H](O)[C@H]2O)c1N [AICAR]; experiment: as above; details: top dose 2000 µM; top dose inferred
Procedure: as §1

[1] = top dose 2.56 µM, screen: GDSC drug entry 171
[2] = top dose 10.24 µM, screen: GDSC drug entry 228

Cell Line | AUC (AKT inhibitor VIII; [1]) | IC50 (AKT inhibitor VIII; [1]) [µM] | AUC (AKT inhibitor VIII; [2]) | IC50 (AKT inhibitor VIII; [2]) [µM] | AUC (AICAR) | IC50 (AICAR) [µM]
RCM-1 (large intestine, adherent) | 0.96 | > 2.56 | 0.975 | > 10.2 | 0.944 | > 2000
REH (B-cell leukaemia, suspension) | 0.921 | > 2.56 | 0.466 | 0.518 | 0.868 | 1710
RERF-LC-KJ (lung adenocarcinoma, adherent) | 0.874 | > 2.56 | 0.703 | 2.44 | 0.912 | > 2000
RERF-LC-MS (lung adenocarcinoma, adherent) | 0.947 | > 2.56 | 0.983 | > 10.2 | 0.983 | > 2000
RERF-LC-Sq1 (lung squamous cell carcinoma, adherent) | 0.901 | > 2.56 | 0.92 | > 10.2 | 0.802 | 1590
RF-48 (stomach, adherent) | 0.862 | > 2.56 | 0.742 | 3.49 | 0.893 | > 2000
RH-1 (rhabdomyosarcoma, adherent) | 0.992 | > 2.56 | 0.761 | 3.08 | 0.918 | > 2000
RH-41 (rhabdomyosarcoma, adherent) | 0.973 | > 2.56 | 0.989 | > 10.2 | 0.887 | 1590
RKN (ovary, adherent) | 0.946 | > 2.56 | 0.919 | > 10.2 | 0.986 | > 2000
RKO (large intestine, adherent) | 0.948 | > 2.56 | 0.894 | > 10.2 | 0.924 | > 2000
RMG-I (ovary, adherent) | 0.981 | > 2.56 | 0.819 | 7.12 | 0.973 | > 2000
RO82-W-1 (thyroid, adherent) | 0.941 | > 2.56 | 0.983 | > 10.2 | 0.922 | > 2000
ROS-50 (B-cell leukaemia, suspension) | 0.971 | > 2.56 | 0.878 | > 10.2 | 0.872 | > 2000
RPMI-2650 (head and neck, adherent) | 0.817 | 1.59 | 0.808 | 5.81 | 0.979 | > 2000
RPMI-6666 (Hodgkin lymphoma, suspension) | 0.889 | > 2.56 | 0.517 | 0.717 | 0.93 | > 2000
RPMI-7951 (melanoma, adherent) | 0.98 | > 2.56 | 0.906 | > 10.2 | 0.824 | 1140
RPMI-8226 (myeloma, suspension) | 0.991 | > 2.56 | 0.83 | 5.3 | 0.522 | 142
RPMI-8402 (T-cell lymphoblastic leukaemia, suspension) | 0.961 | > 2.56 | 0.318 | 0.218 | 0.806 | 830
RPMI-8866 (chronic myeloid leukaemia, suspension) | 0.988 | > 2.56 | 0.933 | > 10.2 | 0.706 | 453

Cell Line | AUC (AKT inhibitor VIII; [1]) | IC50 (AKT inhibitor VIII; [1]) [µM] | AUC (AKT inhibitor VIII; [2]) | IC50 (AKT inhibitor VIII; [2]) [µM] | AUC (AICAR) | IC50 (AICAR) [µM]
RT4 (bladder, adherent) | 0.987 | > 2.56 | 0.879 | > 10.2 | 0.952 | > 2000
RVH-421 (melanoma, adherent) | 0.941 | > 2.56 | 0.808 | 7.84 | 0.937 | > 2000
RXF393 (kidney, adherent) | 0.919 | > 2.56 | 0.826 | 9.74 | 0.834 | > 2000
Raji (Burkitt lymphoma, suspension) | 0.976 | > 2.56 | 0.943 | > 10.2 | 0.938 | > 2000
Ramos-2G6-4C10 (Burkitt lymphoma, suspension) | 0.991 | > 2.56 | 0.852 | 6.2 | 0.617 | 249
SAS (head and neck, adherent) | 0.969 | > 2.56 | 0.914 | > 10.2 | 0.719 | 564
SAT (head and neck, adherent) | 0.966 | > 2.56 | 0.974 | > 10.2 | 0.735 | 865
SBC-1 (small cell lung carcinoma, suspension) | 0.989 | > 2.56 | 0.988 | > 10.2 | 0.844 | 1350
SBC-3 (small cell lung carcinoma, adherent) | 0.983 | > 2.56 | 0.887 | 9.66 | 0.985 | > 2000
SBC-5 (small cell lung carcinoma, adherent) | 0.938 | > 2.56 | 0.983 | > 10.2 | 0.834 | 980
SCC90 (head and neck, adherent) | 0.925 | > 2.56 | 0.58 | 1.16 | 0.91 | > 2000
SCC-4 (head and neck, adherent) | 0.921 | > 2.56 | 0.975 | > 10.2 | 0.81 | 1310
SCC-9 (head and neck, adherent) | 0.847 | > 2.56 | 0.726 | 3.4 | 0.931 | > 2000
SCC-25 (head and neck, adherent) | 0.931 | > 2.56 | 0.69 | 2.36 | 0.834 | 1550
SCH (stomach, adherent) | 0.988 | > 2.56 | 0.981 | > 10.2 | 0.891 | > 2000
SF126 (glioma, adherent) | 0.914 | > 2.56 | 0.937 | > 10.2 | 0.948 | > 2000
SF268 (glioma, adherent) | 0.934 | > 2.56 | 0.915 | > 10.2 | 0.956 | > 2000
SF295 (glioma, adherent) | 0.918 | > 2.56 | 0.888 | > 10.2 | 0.982 | > 2000

Lines with a small IC50 respond at low doses; a fit beyond the top or the lowest dose is shown as a bound at that dose. For AUC the same curve is integrated over the 256-fold range of doses and scaled to a fraction; values near 1 show little effect. An inferred top dose is not printed in the source and was worked back from the curve model. For part of these data: Where an entry number is given, a second screen of the drug exists; the two often differ.
